Reference: article PMC4336329 (PLoS ONE, 2015)
The whole screen tested about 310,000 compounds, of which about 14,000 (4.5%) showed an effect of 50% or more. Effects have a minus sign here. Some of the results follow.

Target: human ether-à-go-go-related gene (hERG) potassium channel (human, UniProt Q12809)
Assay: primary screen, population patch clamp on CHO cells stably expressing hERG
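Also: peak tail current of the secondary pulse compared with the same well before compound.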

Sequence of human ether-à-go-go-related gene (hERG) potassium channel (Q12809 whole entry, looked up): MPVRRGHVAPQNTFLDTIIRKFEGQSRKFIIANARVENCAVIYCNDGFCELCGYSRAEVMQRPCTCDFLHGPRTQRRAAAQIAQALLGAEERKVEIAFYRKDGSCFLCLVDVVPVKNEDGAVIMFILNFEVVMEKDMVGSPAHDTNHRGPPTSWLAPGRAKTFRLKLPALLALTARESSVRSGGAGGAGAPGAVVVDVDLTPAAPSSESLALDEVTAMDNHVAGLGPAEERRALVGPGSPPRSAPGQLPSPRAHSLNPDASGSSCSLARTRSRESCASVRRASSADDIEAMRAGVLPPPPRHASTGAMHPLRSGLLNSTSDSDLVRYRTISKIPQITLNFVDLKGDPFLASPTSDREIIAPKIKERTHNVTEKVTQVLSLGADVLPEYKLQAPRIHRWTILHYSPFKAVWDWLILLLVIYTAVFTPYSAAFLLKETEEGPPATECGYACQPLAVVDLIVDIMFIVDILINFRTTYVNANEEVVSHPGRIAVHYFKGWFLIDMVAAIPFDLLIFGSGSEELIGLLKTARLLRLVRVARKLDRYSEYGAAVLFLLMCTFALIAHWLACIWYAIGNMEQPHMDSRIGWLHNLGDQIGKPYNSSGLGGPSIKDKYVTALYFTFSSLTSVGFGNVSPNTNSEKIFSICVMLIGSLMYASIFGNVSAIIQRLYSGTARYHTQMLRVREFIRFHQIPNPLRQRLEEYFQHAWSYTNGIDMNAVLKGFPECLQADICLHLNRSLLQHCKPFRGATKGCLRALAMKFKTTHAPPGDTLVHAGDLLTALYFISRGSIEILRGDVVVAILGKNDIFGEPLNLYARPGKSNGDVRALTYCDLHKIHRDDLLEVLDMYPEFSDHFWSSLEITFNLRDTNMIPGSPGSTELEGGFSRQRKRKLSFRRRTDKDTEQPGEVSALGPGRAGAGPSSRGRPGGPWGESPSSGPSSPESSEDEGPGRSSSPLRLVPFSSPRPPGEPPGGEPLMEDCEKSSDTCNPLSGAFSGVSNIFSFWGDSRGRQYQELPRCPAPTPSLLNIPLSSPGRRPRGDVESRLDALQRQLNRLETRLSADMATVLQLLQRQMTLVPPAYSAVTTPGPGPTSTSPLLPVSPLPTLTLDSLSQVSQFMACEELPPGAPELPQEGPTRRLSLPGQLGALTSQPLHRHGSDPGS

| SMILES | hERG current change (%, negative = inhibition) at 10uM |
| --- | --- |
| CCOC(=O)c1c(C)n(C)c2cc(-c3ccc(F)cc3)c(O)cc12 | 13.7% |
| COCc1nnc(NC(=O)c2ccc(S(=O)(=O)N3CCCc4ccccc43)cc2)o1 | 11% |
| Cn1ccnc1Sc1nnnn1-c1ccccc1 | -9% |
| O=C(NC1CCCC1)C1CCN(C(=O)c2ccc(Cl)cc2Cl)CC1 | 9% |
| O=S1(=O)NC(=NCc2ccco2)c2ccccc21 | 2.66% |
| CCC(C)NC(=O)C1(C)CCC(=O)N1Cc1ccccc1OC (centres unmarked) | -1.24% |
| Cc1ccc(C(C)C)c(OCC(=O)NNC2=CC(=O)CC(C)(C)C2)c1 | -11.9% |
| O=S(=O)(c1ccccc1C(F)(F)F)N1CCOCC1 | 3.29% |
| O=C(O)CNC(=O)CCCn1nnc2ccccc2c1=O | 14.3% |
| COc1ccc(/C=N/NC(=O)c2ccc(-c3ccccc3)cc2)cc1O | 12.9% |
| CCCOc1ccc(C2C(C#N)=C(N)Oc3nc[nH]c(=O)c32)cc1OC (centres unmarked) | 8.85% |
| COC(=O)c1ccccc1NC(=O)COC(=O)CSCC(=O)N1CCOCC1 | 0.439% |
| COc1ccc(OC)c(C(=O)/C=C/c2ccccc2C(F)(F)F)c1 | 15.2% |
| COc1ccc(C(=O)Nc2ccc(S(=O)(=O)N3CCCC3)cc2)cc1[N+](=O)[O-] | 15.7% |
| CC(C)N(Cc1ccccc1)C(=O)COC(=O)c1ccccc1SCC(=O)N1CCCC1 | -24.9% |
| CCCCNC(=O)N(O)C1N(/N=C/c2ccc(N(C)C)cc2)C(=S)SC1(C)C (centres unmarked) | 9.67% |
| CN(Cc1cccc(F)c1)C(=O)c1cccc(S(=O)(=O)N2CCN(Cc3ccccc3)CC2)c1 | 8.05% |
| Nc1ccc2oc(-c3ccccn3)nc2c1 | 15.4% |
| CCOC(=O)c1ccc(NC(=O)N2CCN(CCc3ccccc3)CC2)cc1 | -45.5% |
| CCO/C([O-])=N/c1c[n+](N2CCOCC2)no1 | 17.4% |
| O/N=C/c1ccc(-c2ccccc2OC(F)(F)F)o1 | 5.95% |
| CCOc1cc(/C=C2\C(=O)N(c3cccc(C(F)(F)F)c3)C(=O)c3ccccc32)ccc1O | 6.39% |

| SMILES | hERG current change (%, negative = inhibition) at 10uM |
| --- | --- |
| CC(C)CN(C(=O)c1cc(=O)[nH]c2ccccc12)c1c(N)n(Cc2ccccc2)c(=O)[nH]c1=O | -4.41% |
| CCc1ccc(/C=C2/C(=O)N(C)C(=S)N2CC(=O)OC)s1 | 11.9% |
| Cc1ccc(S(=O)(=O)NCc2ccc3c(c2)cc(C)n3C)cc1 | 10.6% |
| CCOC(=O)CCc1nn(C)c(=O)c2ccccc12 | -6.68% |
| O=C(NNC(=O)c1ccc(-c2ccccc2)cc1)c1ccccc1 | 2.5% |
| CCCCn1c(NCc2cccs2)nc2ccccc21 | -55.9% |
| COc1ccc(CNC(=S)Nc2ccc(OC)cc2)cc1 | 3.09% |
| CC(NC(=O)CN1CCCC1)C12CC3CC(CC(C3)C1)C2.Cl (centres unmarked) | -15.2% |
| Cn1nc(C(F)(F)F)cc1-c1ccc(/C=C(\C#N)C(=O)c2cccc(C(F)(F)F)c2)s1 | 16.8% |
| CN(C)c1nc(Oc2ccc(=O)n(C)n2)nc(N2CCOCC2)n1 | -8.41% |
| CC12CCC(c3c(C(=O)O)nn(-c4ccc(F)cc4)c31)C2(C)C (centres unmarked) | 7.95% |
| O=C(CN1CCOCC1)Nc1cccc(C(F)(F)F)c1 | -3% |
| CSC1=C(C#N)C(c2ccncc2)C(C(=O)Nc2ccccc2)=C(C)N1 (centres unmarked) | -16.4% |
| COc1cc(COc2ccc3c(C)c(CCC(=O)O)c(=O)oc3c2)cc(OC)c1OC | 17.5% |
| COc1ccc2ccccc2c1/C=N\NC(=O)c1ccc(C)s1 | 14.8% |
| O=C1CCC(=O)N1OCCOc1ccc2c(c1)CCC2 | -13.3% |
| CCOC(=O)C1CCN(CC(O)COc2ccc(C(C)=O)cc2)CC1.Cl (centres unmarked) | -47.7% |
| CC(C)(C)n1cnc2cc(NCc3ccccc3O)ccc21 | -10.1% |
| CCN1C(=O)[C@H]2[C@@H](c3ccc(-c4ccc(C(C)=O)cc4)cc3)N[C@@](Cc3ccccc3)(C(=O)OC)[C@H]2C1=O.O=C(O)C(F)(F)F | 3.52% |
| COC(=O)c1cc2ccsc2n1CC(=O)N1CCCc2ccccc21 | -23.9% |
| COc1ccc(OC)c(C2=NOC(C(=O)Nc3ccc4c(c3)OCCO4)C2)c1 (centres unmarked) | 14.8% |
| O=C(NC(=S)Nn1cnnc1)c1cccc(Br)c1 | 2.66% |
